# Measurements published in publication PMC8847420, “Non-covalent SARS-CoV-2 M^pro inhibitors developed from in silico screen hits” (Scientific Reports, 2022).
# Key:
# [1] = target: T1, SARS-CoV-2 M^pro (Severe acute respiratory syndrome coronavirus 2, UniProt P0DTD1); test: biochemical; details: for IC50: in vitro FRET protease assay, 100 nM M^pro, 500 nM substrate, 22 °C; for inhibition at 40 µM: final compound concentration 40 μM, read-out: inhibition of the protease activity of M^pro (pre-defined threshold level); for inhibitory activity in the protease assay in the presence of cell lysate: 1 μg cell lysate, 40 μM compound; for inhibitory activity against M^pro in the presence of cell lysate: dose-response, 0.1 μg protein lysate
# [2] = target: T1, SARS-CoV-2 M^pro; details: 1 μM M^pro, 20 μM compound; for melting temperature of M^pro: DMSO control 56.32-56.58 °C
Structure (SMILES),IC50 [1],melting temperature of M^pro [2],inhibition at 40 µM [1],inhibitory activity in the protease assay in the presence of cell lysate [1],inhibitory activity against M^pro in the presence of cell lysate [1],effect on the melting temperature of M^pro [2],increase of the melting temperature of M^pro ([2]; versus DMSO)
CSc1ccc(NC(=O)C2CC(=O)Nc3cc(F)ccc32)cc1 (centres unmarked) [Z225602086],7.4 µM,57.02 °C,–,–,–,–,–
CC(=O)c1ccc(-c2ccc(C(=O)C(C#N)c3nc4sc5c(c4c(=O)[nH]3)CCCC5)o2)cc1 (centres unmarked) [Z637352642],223 µM,54.65 °C,> 25%,–,–,–,–
N#CC(C(=O)c1nc(-c2ccccc2)n(-c2ccccc2)n1)c1nc2sc3c(c2c(=O)[nH]1)CCCC3 (centres unmarked) [Z637352244],22 µM,53.85 °C,> 25%,lost activity,–,–,–
Cc1cc(NC(=O)C2CC(=O)Nc3cc(F)ccc32)n(-c2cccc(Cl)c2)n1 (centres unmarked) [ZINC000636416501],93 µM,56.36 °C,> 25%,maintained inhibitory activity,–,–,–
O=C1CC(C(=O)Nc2ccc(Cl)cc2)c2ccccc2N1 (centres unmarked) [Z222978028],5.8 µM,57.02 °C,–,–,retained,–,–
N#CC(C(=O)c1nc(N2CCC(Cc3ccccc3)CC2)ncc1Cl)c1nc2ccc(Cl)cc2c(=O)[nH]1 (centres unmarked) [Z56786187],–,52 °C,–,lost activity,–,–,–
N#CC(C(=O)C1=Cc2cc(Cl)ccc2OC1)c1nc2cc(Cl)ccc2c(=O)[nH]1 (centres unmarked) [Z637450230],–,56.55 °C,–,lost activity,–,did not affect the melting temperature,–
c1cnc(N2CCCC(Nc3nc(NC4CCCN(c5ncccn5)C4)c4ccccc4n3)C2)nc1 (centres unmarked) [Z1037455358],26 µM,55.9 °C,> 25%,lost activity,–,decreased the melting temperature,–
CS(=O)(=O)c1ncc(Cl)c(C(=O)C(C#N)c2nc3ccc(Cl)cc3c(=O)[nH]2)n1 (centres unmarked) [Z56785964],–,48.63-55.98 °C,–,–,–,–,–
O=C1CC(C(=O)Nc2ccc(Br)cc2)c2ccccc2N1 (centres unmarked) [Z222977344],2 µM,57.24 °C,–,–,retained,–,–
Cc1oc(-c2ccccc2)nc1C(=O)C(C#N)c1nc2sc3c(c2c(=O)[nH]1)CCCC3 (centres unmarked) [Z637352638],7.5 µM,45.5-56.55 °C,–,–,–,–,–
Cc1cc(C)c2nc(C(C#N)C(=O)c3nc(S(C)(=O)=O)ncc3Cl)[nH]c(=O)c2c1 (centres unmarked) [Z2239054061],6.7 µM,48.8-55.5 °C,–,–,–,–,–
Cn1cc(-c2cc(F)ccc2NC(=O)C2CC(=O)Nc3cc(F)ccc32)cn1 (centres unmarked) [ZINC000373659060],58 µM,56.36 °C,> 25%,maintained inhibitory activity,–,–,–
O=C1CC(C(=O)Nc2ccc(I)cc2)c2ccc(F)cc2N1 (centres unmarked) [Z228770960],4 µM,57.56 °C,–,–,–,–,1.2 °C
CSc1ccc(NC(=O)C2CC(=O)Nc3ccccc32)cc1 (centres unmarked) [Z228166018],1.6 µM,57.43 °C,–,–,retained,–,–
